Test results: PMC5397843
No constants are given. Whether binding was seen depends on the method and setting. Binding seen in cells or lysates may run through a third protein. Some entries that bind do so weakly or less than the wild type. Where a sequence is shown, tags or fusion partners need not be part of it.

Protein sequences, listed by entry. Tags and fused reporters are not part of them.
UniProt P40337: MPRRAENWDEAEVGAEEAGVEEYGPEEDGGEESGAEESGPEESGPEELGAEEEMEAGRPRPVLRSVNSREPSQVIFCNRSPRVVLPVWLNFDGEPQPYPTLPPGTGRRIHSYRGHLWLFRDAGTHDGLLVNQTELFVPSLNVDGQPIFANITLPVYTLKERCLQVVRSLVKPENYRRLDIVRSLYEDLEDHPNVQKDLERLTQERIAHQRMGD

Biological target: HA-tagged pVHL30 (human) (UniProt P40337)
Assay: co-IP; HEK293T transiently transfected with HA-pVHL30 and FLAG-CDKN1; post-nuclear supernatant (20 mM HEPES-Na pH 7.4, 150 mM NaCl, 5 mM CHAPS); anti-VHL antibody on protein A magnetic beads, 4 h at 4 °C; blot with anti-Flag

B1: Flag-tagged p57 (CDKN1C) (protein, UniProt P49918 1-316)
chain: MSDASLRSTSTMERLVARGTFPVLVRTSACRSLFGPVDHEELSRELQARLAELNAEDQNRWDYDFQQDMPLRGPGRLQWTEVDSDSVPAFYRETVQVGRCRLLLAPRPVAVAVAVSPPLEPAAESLDGLEEAPEQLPSVPVPAPASTPPPVPVLAPAPAPAPAPVAAPVAAPVAVAVLAPAPAPAPAPAPAPAPVAAPAPAPAPAPAPAPAPAPAPDAAPQESAEQGANQGQRGQEPLADQLHSGISGRPAAGTAAASANGAAIKKLSGPLISDFFAKRKRSAPEKSSGDVPAPCPSPSAAPGVGSVEQTPRKRLR
With B1 the binding was “binds”.
